Source: PubChem BioAssay AID1461 (National Center for Advancing Translational Sciences (NCATS), 2008)
Out of some 220,000 compounds screened, about 2,300 (1%) were called active. The inconclusive results got no clear call from the source; some entries with a clear call stand among them for comparison. Calls come from the whole dose curve; as a rule, active = well fitted inhibition curve with a large enough effect; inconclusive = small, poorly fitted or top-dose-only effect, or effect the other way; inactive = no such curve, though single readings can be large or run the other way. Potencies of inconclusive entries are left out as doubtful fits.

These molecules were tested against Neuropeptide S receptor (Homo sapiens) (UniProt Q6W5P4) (assay: qHTS Assay for Antagonists of the Neuropeptide S Receptor: cAMP Signal Transduction). Conditions: CHO-NPSR cells, cAMP TR-FRET, antagonist mode; series mostly up to 38.3 µM.
Note: nearly all actives have a fitted effect of over 50% in size.
Potency is the fitted concentration of half-maximal effect; tags give direction and shape of the fitted curve.

Sequence of UniProt Q6W5P4 (Q6W5P4 whole entry, looked up): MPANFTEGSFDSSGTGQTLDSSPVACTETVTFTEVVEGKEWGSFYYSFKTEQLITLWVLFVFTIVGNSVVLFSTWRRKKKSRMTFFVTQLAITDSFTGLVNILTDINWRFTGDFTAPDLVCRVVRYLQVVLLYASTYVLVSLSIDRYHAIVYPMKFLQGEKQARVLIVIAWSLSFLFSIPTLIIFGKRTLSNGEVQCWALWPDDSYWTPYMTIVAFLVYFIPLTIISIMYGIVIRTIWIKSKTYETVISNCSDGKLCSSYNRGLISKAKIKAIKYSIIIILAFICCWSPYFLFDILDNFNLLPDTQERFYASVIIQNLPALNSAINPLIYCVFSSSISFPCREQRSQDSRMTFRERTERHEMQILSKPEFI

| Compound | Potency |
| --- | --- |
| CCC(C)NC(=O)c1ccccc1-c1ccccc1C(=O)NC(C)CC (configuration not stated) | inactive |
| CCCc1nc2oc3cc(OC)ccc3c(=O)c2c(=O)n1Cc1ccco1 | inactive |
| O=C(Nc1ccc(F)cc1F)Nc1ccc(F)cc1F | inactive |
| CC(C)[C@@H]1CC[C@@H](C)C[C@H]1OC(=O)C[n+]1cc(-c2ccc(Cl)cc2)n2c1CCCCC2 | inconclusive [inhibitor, single point] |
| Cc1cc(/C=N/n2c(COc3ccccc3C)nc3ccccc3c2=O)c(O)c([N+](=O)[O-])c1 | inconclusive [inhibitor, single point] |
| O=C(CSC1=NCCS1)Nc1cccc2ccccc12 | inactive |
| Cc1oc2c(c1C(=O)Nc1cccc3ccccc13)CCCC2 | inconclusive [inhibitor, single point] |
| CC1CCC(NC(=O)CC(C)(C)Cc2nc3ccccc3c(=O)[nH]2)CC1 (configuration not stated) | inconclusive [inhibitor, single point] |
| COc1ccc(-n2c(Cc3cccn3C)nnc2SCC(=O)N2CCCc3ccccc32)cc1 | inconclusive [inhibitor, single point] |
| CCC(SC1=Nc2ccccc2C2=NC(CC(C)C)C(=O)N12)C(=O)Nc1ccc2c(c1)OCO2 (configuration not stated) | inconclusive [inhibitor, single point] |
| O=S(=O)(N1CCCCC1)N1CCN(c2cc(Cl)ccc2Cl)CC1 | inconclusive [activator, single point] |
| CC(C)[C@H](NC(=O)OC(C)(C)C)c1nnc(S(=O)(=O)Cc2c(F)cccc2Cl)o1 | active: 12.6 µM |
| Nc1c(C(O)(C(F)(F)F)C(F)(F)F)cc(C(O)(C(F)(F)F)C(F)(F)F)c2ccccc12 | inconclusive [inhibitor, single point] |
| CC(=O)OCCNc1cc(Sc2nc3ccccc3[nH]2)c2nonc2c1[N+](=O)[O-] | inconclusive [inhibitor, single point] |
| O=C(C1=C[C@H](c2coc3ccccc3c2=O)C[C@H](OCc2ccc(CO)cc2)O1)N1CCN(Cc2ccccc2)CC1 | inconclusive [activator, partial curve] |
| O=[N+]([O-])c1ccccc1/C=C/C=N/n1c(-c2ccco2)n[nH]c1=S | inactive |
| CCOc1ccc(-n2nnc3c(=O)n(CC(=O)Nc4cc(C)on4)cnc32)cc1 | inactive |
| CC(Oc1ccc(Cl)cc1)c1ccnn1S(=O)(=O)c1ccccc1 (configuration not stated) | inconclusive [inhibitor, single point] |
| COc1ccc(CN(C(=O)Cc2c[nH]c3ccccc23)C(C(=O)NC2CCCCC2)c2ccc(C)o2)cc1 (configuration not stated) | inconclusive [inhibitor, partial curve] |
| COc1ccc(C2(O)CC3CCC(C2)N3c2cc(C)nc(-c3ccccc3)n2)cc1 (configuration not stated) | inconclusive [inhibitor, single point] |
| CC(=O)Nc1nonc1-c1nc2ccccc2n1CCC(C)C | inconclusive [inhibitor, full curve, poor fit] |
| Cc1ccc(N(C(=O)Cn2nnc3ccccc32)C(C(=O)NCc2ccco2)c2ccc(C)o2)cc1 (configuration not stated) | inconclusive [inhibitor, partial curve] |
| O=C(OCC(=O)N1CCN(C(=O)c2ccco2)CC1)c1cc(-c2ccco2)nc2ccccc12 | inactive |

| Compound | Potency |
| --- | --- |
| O=C(Cc1cccs1)N(Cc1cccs1)C1(C(=O)NC2CCCC2)CCCCC1 | inconclusive [inhibitor, single point] |
| CCOC(=O)N1CCN(C(=S)NC(=O)c2ccnn2C)CC1 | inactive |
| CCCCn1c2nc3ccccc3nc2c2c(=O)n(CCC)cnc21 | inconclusive [inhibitor, single point] |
| COc1ccc(CCC(=O)NCCc2cn3c(C)csc3n2)cc1 | inactive |
| CC(=O)c1c(C)[nH]c(C(=O)COC(=O)CCSc2ccccc2)c1C | inactive |
| CC(Oc1ccc(Cl)cc1Cl)c1nc(-c2ccc(NC(=O)c3ccncc3)cc2)no1 (configuration not stated) | inconclusive [inhibitor, full curve, poor fit] |
| CC1(C)C2CCC1(C)C(NC(=O)/C=C/c1ccccc1)C2 (configuration not stated) | inconclusive [inhibitor, single point] |
| Cc1ccccc1N=C1NC(=O)/C(=C/c2cccnc2)S1 | inconclusive [inhibitor, single point] |
| COc1ccccc1CN(Cc1nc2ccccc2c(=O)[nH]1)C(=O)Nc1cccc(C)c1 | inconclusive [inhibitor, single point] |
| COc1ccc(O[C@H]2C=C[C@@H](c3ccccc3)O[C@@H]2COC(=O)CC/C(C)=N/OC[C@@H](O)COCc2ccco2)cc1 | inactive |
| CCc1cccc(NC(=O)c2ccc(NS(=O)(=O)c3c(C)noc3C)cc2)c1 | inconclusive [inhibitor, single point] |
| COc1ccc2c(=O)c3c(=O)n(CCc4ccccc4)c(C(C)C)nc3oc2c1 | inconclusive [inhibitor, single point] |
| CC(C)(C)c1nn(-c2ccccc2)c2[nH]c(=O)c(CNCc3ccc4c(c3)OCO4)cc12 | inconclusive [inhibitor, single point] |
| CCOc1cc(S(=O)(=O)N(Cc2ccccc2)Cc2ccccc2)c(OCC)cc1-n1cnnn1 | inconclusive [inhibitor, partial curve] |
| CCN1C(=O)S/C(=C/c2c(OCc3ccc(C(=O)O)cc3)ccc3ccccc23)C1=O | inconclusive [inhibitor, single point] |
| COc1cnc(-c2ccccn2)nc1Sc1c(Cl)cccc1Cl | inconclusive [inhibitor, single point] |
| N#Cc1nc(-c2ccco2)oc1N1CCN(c2cccc(Cl)c2)CC1 | inconclusive [inhibitor, partial curve] |
| CCOC(=O)c1ccc(-c2c(C(=O)OCC)oc3cc(O)c(CC)cc3c2=O)o1 | inconclusive [inhibitor, partial curve] |
| OC[C@H](O)[C@H](O)[C@@H](O)[C@@H](O)[C@@H]1SC(c2ccccc2)=NN1c1ccccc1 | inactive |
| CC1CN(C(=O)c2ccc(COc3ccc(C(C)C)cc3)o2)CC(C)O1 (configuration not stated) | inactive |
| Cc1cn(CC2COC(C)(C)O2)c(=O)[nH]c1=O (configuration not stated) | inconclusive [inhibitor, single point] |
| COc1ccccc1C(CC(=O)c1ccccc1)CC(=O)c1ccccc1 | inconclusive [inhibitor, single point] |
| CCC(=O)N(Cc1cc2cc(OC)ccc2[nH]c1=O)c1cccc(C)c1 | inconclusive [inhibitor, full curve] |

| Compound | Potency |
| --- | --- |
| CCOC(=O)c1c(-c2ccc(-c3ccccc3)cc2)csc1NC(=O)C1C2CCC(O2)C1C(=O)O (configuration not stated) | inconclusive [inhibitor, partial curve] |
| O=C1C2=C(SCCS2)C(=O)N1c1ccccc1 | inconclusive [activator, single point] |
| COc1ccc(NC(=O)CC2C(=O)N(c3ccc(Cl)cc3)C(=S)N2CCc2ccncc2)cc1 (configuration not stated) | inconclusive [inhibitor, single point] |
| COc1cc(C)c(Cl)cc1S(=O)(=O)NC1CC(C)(C)NC(C)(C)C1 | inactive |
| C=CCn1c(SCC(=O)c2cc(C)n(CCOC)c2C)nc2sc(C)c(C)c2c1=O | inactive |
| CCOC(=O)C(=CNc1ccc(Cl)cn1)C(=O)OCC | inconclusive [inhibitor, single point] |
| CCCCN(CC)CCCNC(=S)Nc1ccc2nc(N3CCN(C)CC3)cc(C)c2c1 | inactive |
| CCOC(=O)c1[nH]c(C)c(C(=O)N2CCc3c([nH]c4ccccc34)C2c2ccccn2)c1C (configuration not stated) | inconclusive [activator, partial curve] |
| COc1ccccc1Oc1ccc2c(c1)C(=O)N(CC1CCCO1)C2=O (configuration not stated) | inactive |
| CCOc1cc(/C=N/NC(=O)c2cc(C)[nH]n2)ccc1OC(=O)c1ccc([N+](=O)[O-])cc1 | inactive |
| O=c1[nH]c(SCc2n[nH]c(=S)n2-c2ccccc2)nc2ccccc12 | inactive |
| O=P(c1ccccc1)(c1ccccc1)C(c1ccco1)N1CCOCC1 (configuration not stated) | inconclusive [inhibitor, partial curve] |
| O=C1/C(=C/c2ccc(N3CCCC3)cc2)NC(=S)N1C1CC1 | inconclusive [inhibitor, single point] |
| Cc1cc(Cl)ccc1NC(=O)CN1CCC(C(O)(c2ccccc2)c2ccccc2)CC1 | inconclusive [inhibitor, partial curve] |
| CCOc1ccc(NC(=O)CSc2ncnc3c2sc2ccccc23)cc1 | inconclusive [inhibitor, single point] |
| COc1cccc2cc(C(=O)C3=C(O)C(=O)N(Cc4ccco4)C3c3cccnc3)oc12 (configuration not stated) | active: 7.94 µM |
| Fc1ccc(Br)cc1C1C=C(c2ccc(Br)cc2)Nc2ncnn21 (configuration not stated) | inactive |
| CCOC(=O)C(=Cc1ccc(F)cc1)C(=O)OCC | inconclusive [inhibitor, single point] |
| CCCCn1c(SCC(=O)Nc2ccccc2C(F)(F)F)nc2ccsc2c1=O | inconclusive [inhibitor, partial curve] |
| CCN1c2ccccc2NC2C1C(C(C)=O)C(=O)N2c1ccc(Cl)cc1 (configuration not stated) | inactive |
| S=c1[nH]nc(CSCc2ccccc2Cl)n1-c1ccccc1 | inactive |
